Test results published in PMC11995724, “Antibiotic target discovery by integrated phenotypic and activity-based profiling of electrophilic fragments” (Cell chemical biology, 2025).
Hit rate of the full screen: of about 3,200 compounds, about 110 (3.4%) showed an effect of 50% or more. The list shows a part of the results.

The compounds below were run on T1, V. cholerae SAD30. Conditions: relative growth, OD600, LB; 25 µM; inhibitor.
T1 construct: SAD30
Set-up: species or system S. aureus MSSA476 (TSB) or V. cholerae SAD30 (LB); 384-well bacterial growth screen at 25 uM, OD600 relative to DMSO control

Row | SMILES | % of control remaining [%]
1 | C=CC(=O)N1CC(C(N)=O)Oc2ccccc21 (stereo not shown) [1-A09, 4-(prop-2-enoyl)-3,4-dihydro-2H-1,4-benzoxazine-2-carboxamide] | 89.2377
2 | N#CC(=Cc1ccc(O)c([N+](=O)[O-])c1)C(=O)Nc1ccccc1C(=O)O [9-G10, 2-[2-cyano-3-(4-hydroxy-3-nitrophenyl)prop-2-enamido]benzoic acid] | 83.4126
3 | C=CC(=O)NCc1c(C(F)(F)F)coc1C [1-E17, N-{[2-methyl-4-(trifluoromethyl)furan-3-yl]methyl}prop-2-enamide] | 87.4439
4 | O=C1C=CC(=O)N1CCc1ccccc1F [10-G03, 1-[2-(2-fluorophenyl)ethyl]-2,5-dihydro-1H-pyrrole-2,5-dione] | 22.2872
5 | C=CC(=O)NC(C)c1ccc(S(=O)(=O)N(C)C)cc1 (stereo not shown) [3-A20, N-{1-[4-(dimethylsulfamoyl)phenyl]ethyl}prop-2-enamide] | 121.731
6 | CC(Cl)C(=O)N[C@H]1C[C@H](Cn2cncn2)C1 (stereo partly shown) [6-D20, 2-chloro-N-[(1r,3r)-3-[(1H-1,2,4-triazol-1-yl)methyl]cyclobutyl]propanamide] | 88.7288
7 | CC(C)Cn1c(N)c(C(=O)CCl)c(=O)[nH]c1=O [10-F08, 6-amino-5-(2-chloroacetyl)-1-(2-methylpropyl)-1,2,3,4-tetrahydropyrimidine-2,4-dione] | 101.305
8 | CC(Cl)C(=O)Nc1ccccc1 (stereo not shown) [5-F10, 2-chloro-N-phenylpropanamide] | 95.3242
9 | CC(Cl)C(=O)Nc1cccc2ccccc12 (stereo not shown) [5-N12, 2-chloro-N-(naphthalen-1-yl)propanamide] | 89.9443
10 | Cc1ccc(C=C(C#N)C(=O)NC2CCCCC2)cc1C [8-G10, 2-cyano-N-cyclohexyl-3-(3,4-dimethylphenyl)prop-2-enamide] | 68.3209
11 | N#CC(=Cc1cc2cc(F)ccc2o1)C(=O)NC(N)=O [8-C22, {2-cyano-2-[(5-fluoro-1-benzofuran-2-yl)methylidene]acetyl}urea] | 90.2107
12 | N#CC(=Cc1ccsc1)C(=O)NCc1ccco1 [9-H22, 2-cyano-N-[(furan-2-yl)methyl]-3-(thiophen-3-yl)prop-2-enamide] | 94.6975
13 | C=CC(=O)N1CCC(C(=O)N(C)C(C)c2sc(CC)nc2C)CC1 (stereo not shown) [2-P04, N-[1-(2-ethyl-4-methyl-1,3-thiazol-5-yl)ethyl]-N-methyl-1-(prop-2-enoyl)piperidine-4-carboxamide] | 102.702
